A short description of series [1]: ChromlogD assay. The procedure: The Chromatographic Hydrophobicity Index (CHI)[22] values were measured using reversed phase HPLC column (Luna C18 (2), Phenomenex, UK) with a fast acetonitrile gradient at starting mobile phase of pH = 7.4. CHI values are derived directly from the gradient retention times by using a calibration line obtained for standard compounds. The CHI value approximates to the volume % organic concentration when the compound elutes. […] The average error of the assay is ±3 CHI unit or ±0.25 ChromlogD.

The test system of series [2] is T. brucei brucei parasites (Lister 427 strain). Briefly: Dose response growth inhibition assay (resazurin, 72 h). It counts as cell-based. Particulars: Trypanosoma brucei. The protocol: Greiner sterile black clear bottom 384-well assay plates were pre-dispensing with 200 nL of compound in each well, from master plates at 1 mM (100% DMSO) containing selection from the GSK compound collection. Controls of 0% response (control 1, 200 nL of 100%DMSO) and 100% response (control 2, 200 nL of 1 mM pentamidine) were included in each assay plate in columns 6 and 18, respectively. Plates containing 200 nL of 100% DMSO were included randomly in the assay, to assess quality through all process. […] After this period, 10 µL of 200 µM resazurin solution in prewarmed HMI-9 were added to each well, and plates were allowed to incubate 2 hours more prior fluorescence reading in a Wallac EnVision Multilabel Plate Reader (Perkin-Elmer). Raw fluorescent data from the Envision plate reader were uploaded into GSK HTS database (ActivityBase). Activity of each well was normalized as a percentage of inhibition per-plate basis using the following equation: [drawing 1]
For dose-response experiments, serial compound dilutions of selected hits from the primary campaign were plotted against compound concentration. Dose response master plates were prepared by 3-fold dilutions (starting with 10 mM DMSO stock solutions), providing 11 concentrations. From these master plates, 200 nL per well was stamped in final assay plates, including the same controls describe in the primary single shot assay. Compounds were dispensed as serial dilution curve format, with 11 points at 3-fold dilution and 40 µM as starting top concentration (n = 2). Growth inhibition assay was performed as described in previous assay.
A 4-parameter equation describing a sigmoidal dose-response curve was then fitted with an adjustable baseline using ActivityBase XE Runner software. Fitting of dose-response curves and EC50 determination were normalized as percentage of inhibition based on controls. The curve-fit model was based on a 4-parameter equation: [drawing 2]
Trypanosome cell culture. […]
In general terms: The colour change of resazurin is a common sign of viable cells or microbes.

For series [3], the system named is HepG2 cells. Briefly: Cytotoxicity assay (Cell Titer Glo, 48 h). Particulars: HepG2 cells, 48 h. The procedure:
This assay was used as selectivity assay, and selected hits from the primary were test in dose response concentration against HepG2 in order to identify the level of host cell cytotoxicity. Dose response starting at 10 mM and with 3-fold dilutions for 11 points, were made in 1,536-well master plates. 50 nL per well from them were stamped in final assay plates. The human biological samples were sourced ethically and their research use was in accord with the terms of informed consent.
Cell density was adjusted to 60,000 cells/mL as working concentration in prewarmed Eagle's MEM medium. Seeding density was be checked to ensure that new monolayers are not more than ∼ 50% confluent at the time of seeding (typically 3,000 cells per well), before completing preparation of plates. […] Viability was determined by Cell Titer Glo Kit (Promega) according to manufacturer's instructions: briefly, reconstituted Cell Titer Buffer was equilibrated to room temperature prior its use and 5 µL per well were dispensed with a Multidrop Combi Reagent Dispenser. Contents were mixed on a plate orbital shaker and incubated for 10 min at room temperature, to allow the signal to stabilize before luminescence reading on ViewLux Plate Reader (Perkin-Elmer).
Raw Luminescence data from the ViewLux reader were uploaded into GSK HTS database (ActivityBase). […]
A general note: Cellular ATP, detected with luciferase, serves as a proxy for viable cell number.

Series [4] is described as follows: CLND kinetic solubility assay. It counts as physicochemical. Particulars: phosphate buffered saline, pH 7.4, aqueous buffer, kinetic from dmso stock; Measured; read-out: Aq Sol. The procedure:
5 µL of 10 mM DMSO stock solution was diluted to 100 µL with pH 7.4 phosphate buffered saline, equilibrated for 1 hour at room temperature, filtered through Millipore MultiscreenHTS-PCF filter plates (MSSL BPC). The filtrate was quantified by suitably calibrated flow injection Chemi-Luminescent Nitrogen Detection.

The target in series [5] is Cytochrome P450 (CYP450) (Homo sapiens, UniProt P08684). Briefly: Cytochrome P450 inhibition profile. Particulars: Measured. It counts as in vitro ADME. The protocol:
The P450 inhibition profile of the inhibitors was determined as previously described.

The target in series [6] is T1, Human Serum Albumin (HSA) (Homo sapiens, UniProt P02768).
T1 construct: purchased Chiral Technologies, France
Briefly: Protein binding assay (HPLC stationary phase), HSA. It counts as in vitro ADME. Particulars: Measured. The procedure: Chemically bonded Human Serum Albumin (HSA) and Alpha-1-acidglycoprotein HPLC stationary phases (Chiral Technologies, France) were used for measuring compounds' binding to plasma proteins, applying linear gradient elution up to 30% iso-propanol. The run time was 6 min, including the re-equilibration of the stationary phases with the 50 mM pH7.4 ammonium acetate buffer. The obtained gradient retention times were standardised using a calibration set of mixtures as described in the references. The average standard error of the assay depends on the binding strength and kinetics of the compounds.

Setting [7] is: T. b. brucei growth inhibition, read-out: Tbb pEC50 (converted).
Setting [8] is: CYP3A4, VG substrate, read-out: CYP3A4VG pXC50 (converted).
[9] abbreviates: CYP3A4, VR substrate, read-out: CYP3A4VR pXC50 (converted).

The results in this text go back to article PMC4207660, “Identification and Characterization of Hundreds of Potent and Selective Inhibitors of Trypanosoma brucei Growth from a Kinase-Targeted Library Screening Campaign” (PLoS Neglected Tropical Diseases, 2014).

In brackets after ≈: the same amount, converted by molar mass. Read-outs that look alike come from different tables or passages of the source.

As a reminder, the logD is lipophilicity at a set pH, counting ionised and neutral species. Read a low logD as lower lipophilicity. For `CN[C@@H]1C[C@H]2O[C@@](C)([C@@H]1OC)n1c3ccccc3c3c4c(c5c6ccccc6n2c5c31)C(=O)NC4` [NEU-0001095], the logD in series [1] (pH 7.4) is 3.13. Moreover, the EC50 in series [2] (72 h, read-out: pEC50 (converted)) was 9.12 nM. In series [3], this molecule returned a pTC50 of 5.29.
With `O[C@H]1CC[C@H](Nc2cccc(Nc3nc4ccc(-c5ccncc5)cc4s3)n2)CC1` [NEU-0001115], the solubility kinetic at 1 h in series [4] was determined as 2 µM (≈ 0.835 µg/mL). This molecule gave a PFI in series [1] of 8.4. In addition, in series [2] (setting [7]), the EC50 was 39.8 nM. The results for the IC50 in series [5] (setting [8]) and in series [5] (setting [9]) were 25.1 nM and 7.94 nM, respectively. Further, the HSA % binding in series [6] worked out at 96.86%.
Turning to `NC(=O)c1ccccc1Nc1nc(NC2CCN(S(=O)(=O)C3CC3)CC2)ncc1Br` [NEU-0001133], in series [4], the solubility kinetic at 1 h is 4 µM (≈ 1.98 µg/mL). The molecule further displayed a PFI in series [1] of 5.55. Besides, in series [2] (setting [7]), the EC50 was 2 nM. Further, the IC50 in series [5] (setting [8]) is 6310 nM; in series [5] (setting [9]), 12600 nM. In series [6], this molecule gave an HSA % binding of 91.99%.
As for `O=C(c1ccc(-c2ccnc(NCCc3ccc(O)cc3)n2)s1)N1CCNCC1` [NEU-0001172], the solubility kinetic at 1 h in series [4] turned out to be 71 µM (≈ 29.1 µg/mL). In series [1], this molecule came in with a PFI of 5.12. In addition, in series [5] (setting [9]), the IC50 was 10000 nM. For the same molecule, the HSA % binding in series [6] came out at 94.35%.
